Experimental data as given in PubChem BioAssay (NCI).
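Compound exposure: 48 hours, 5 concentrations, 96-well plates. Here, GI50 denotes the concentration required for 50% inhibition of growth.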 Certain results were filed several times, with different values. This list holds those alone. There may be further records. For part of these data: Records of one sample usually come from different ranges of test concentrations, which the source does not state; a value can be the end of its range. For part of these data: The records of an entry are repeats (runs, samples, wells, individuals or studies). Brackets tell where a record comes from. Letters count within one entry.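 TGI: concentration producing complete growth inhibition.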

Experiments:
Test in all cases: DTP human tumour cell line panel, 48 h
NCI-H522 lung = tested on: NCI-H522 lung
MALME-3M melanoma = tested on: MALME-3M melanoma
SK-MEL-28 melanoma = tested on: SK-MEL-28 melanoma
OVCAR-3 ovarian = tested on: OVCAR-3 ovarian
EKVX NSCLC = tested on: EKVX NSCLC
SNB-75 CNS = tested on: SNB-75 CNS
COLO 205 colon = tested on: COLO 205 colon
OVCAR-4 ovarian = tested on: OVCAR-4 ovarian
RXF 393 renal = tested on: RXF 393 renal

Question: `CN1CC[C@H](N(C)C(=O)N2CC(c3cc(F)ccc3F)=C[C@@]2(CO)c2ccccc2)[C@H](F)C1` was tested. Which TGI (NCI-H522 lung) did it give?
Answer: Its TGI is 97.8 nM and 17.5 µM.

Question: What about the GI50 (MALME-3M melanoma) of the same compound?
Answer: The GI50 was 51 nM and 11.1 µM.

Question: What about the GI50 (SK-MEL-28 melanoma) of the same compound?
Answer: The GI50 was 342 nM and 12 µM.

Question: And the TGI (OVCAR-3 ovarian)?
Answer: The TGI was 179 nM and > 100 µM.

Question: What about the GI50 (EKVX NSCLC) of the same compound?
Answer: Its GI50 is 19.8 nM and 343 nM.

Question: Which results are given for `Nc1nc(N)c2nc(CNc3ccc(C(=O)NC(CCC(=O)O)C(=O)O)cc3)cnc2n1` (centres undefined)?
Answer: GI50 (SNB-75 CNS): 27.5 µM [sample A, mean of 2 tests] and 92.1 nM [sample B, 1 test]; GI50 (COLO 205 colon): 1.79 µM [sample A, mean of 2 tests] and 81.9 nM [sample B, mean of 2 tests]; GI50 (OVCAR-4 ovarian): < 10 nM [sample A, 1 test] and > 100 µM [sample B, mean of 2 tests]; GI50 (RXF 393 renal): > 100 µM [sample A, 1 test] and 82.7 nM [sample B, mean of 2 tests]
